In patent publication US20110319597A1 (CAPHALON AUSTRALIA, published 2011):

Legend:
recombinant human TNFα = recombinant human TNFα (human, UniProt P01375 part only); experiment: cell-based or functional assay
[1] = target: T1, recombinant human TNFα (CytoLab) (human, UniProt P01375 part only); experiment: ELISA on coated human TNFα
T1 construct: coated on the ELISA plate at 1 µg/ml; also called Tumour necrosis factor alpha

Row | Binder | Standardized EC50, L929 neutralization assay (5-point) (recombinant human TNFα) | A450 (AU) [1]
1 | TNFα dAb Fc variant G41P (Fc fusion, name in Kabat numbering) DIQMTQSPSSLSASVGDRVTITCRASQAIDSYLHWYQQKPPKAPKLLIYSASNLETGVPSRFSGSGSGTDFTLTISSLLPEDFATYYCQQVVWRPFTFGQGTKVEIKRV[human IgG1 Fc with changes left out] | 7.33 µg/mL | 0.966 AU
2 | TNFα dAb Fc variant G41Q (Fc fusion, name in Kabat numbering) DIQMTQSPSSLSASVGDRVTITCRASQAIDSYLHWYQQKPQKAPKLLIYSASNLETGVPSRFSGSGSGTDFTLTISSLLPEDFATYYCQQVVWRPFTFGQGTKVEIKRV[human IgG1 Fc with changes left out] | 2.39 µg/mL | 1.07 AU
3 | TNFα dAb Fc variant G41S (Fc fusion, name in Kabat numbering) DIQMTQSPSSLSASVGDRVTITCRASQAIDSYLHWYQQKPSKAPKLLIYSASNLETGVPSRFSGSGSGTDFTLTISSLLPEDFATYYCQQVVWRPFTFGQGTKVEIKRV[human IgG1 Fc with changes left out] | 5.34 µg/mL | 1.06 AU
4 | TNFα dAb Fc variant G41Y (Fc fusion, name in Kabat numbering) DIQMTQSPSSLSASVGDRVTITCRASQAIDSYLHWYQQKPYKAPKLLIYSASNLETGVPSRFSGSGSGTDFTLTISSLLPEDFATYYCQQVVWRPFTFGQGTKVEIKRV[human IgG1 Fc with changes left out] | 3.57 µg/mL | 0.929 AU
5 | TNFα dAb Fc variant G57A (Fc fusion, name in Kabat numbering) DIQMTQSPSSLSASVGDRVTITCRASQAIDSYLHWYQQKPGKAPKLLIYSASNLETAVPSRFSGSGSGTDFTLTISSLLPEDFATYYCQQVVWRPFTFGQGTKVEIKRV[human IgG1 Fc with changes left out] | 2.06 µg/mL | 1.18 AU
6 | TNFα dAb Fc variant G57D (Fc fusion, name in Kabat numbering) DIQMTQSPSSLSASVGDRVTITCRASQAIDSYLHWYQQKPGKAPKLLIYSASNLETDVPSRFSGSGSGTDFTLTISSLLPEDFATYYCQQVVWRPFTFGQGTKVEIKRV[human IgG1 Fc with changes left out] | 0.948 µg/mL | 0.473 AU
7 | TNFα dAb Fc variant G57H (Fc fusion, name in Kabat numbering) DIQMTQSPSSLSASVGDRVTITCRASQAIDSYLHWYQQKPGKAPKLLIYSASNLETHVPSRFSGSGSGTDFTLTISSLLPEDFATYYCQQVVWRPFTFGQGTKVEIKRV[human IgG1 Fc with changes left out] | 0.795 µg/mL | 1.19 AU
8 | TNFα dAb Fc variant G57K (Fc fusion, name in Kabat numbering) DIQMTQSPSSLSASVGDRVTITCRASQAIDSYLHWYQQKPGKAPKLLIYSASNLETKVPSRFSGSGSGTDFTLTISSLLPEDFATYYCQQVVWRPFTFGQGTKVEIKRV[human IgG1 Fc with changes left out] | 1.03 µg/mL | 1.19 AU
9 | TNFα dAb Fc variant G57L (Fc fusion, name in Kabat numbering) DIQMTQSPSSLSASVGDRVTITCRASQAIDSYLHWYQQKPGKAPKLLIYSASNLETLVPSRFSGSGSGTDFTLTISSLLPEDFATYYCQQVVWRPFTFGQGTKVEIKRV[human IgG1 Fc with changes left out] | 2.82 µg/mL | 1.07 AU
10 | TNFα dAb Fc variant G57P (Fc fusion, name in Kabat numbering) DIQMTQSPSSLSASVGDRVTITCRASQAIDSYLHWYQQKPGKAPKLLIYSASNLETPVPSRFSGSGSGTDFTLTISSLLPEDFATYYCQQVVWRPFTFGQGTKVEIKRV[human IgG1 Fc with changes left out] | 6.53 µg/mL | 0.496 AU
11 | TNFα dAb Fc variant G57Q (Fc fusion, name in Kabat numbering) DIQMTQSPSSLSASVGDRVTITCRASQAIDSYLHWYQQKPGKAPKLLIYSASNLETQVPSRFSGSGSGTDFTLTISSLLPEDFATYYCQQVVWRPFTFGQGTKVEIKRV[human IgG1 Fc with changes left out] | 0.761 µg/mL | 1.11 AU
12 | TNFα dAb Fc variant G57S (Fc fusion, name in Kabat numbering) DIQMTQSPSSLSASVGDRVTITCRASQAIDSYLHWYQQKPGKAPKLLIYSASNLETSVPSRFSGSGSGTDFTLTISSLLPEDFATYYCQQVVWRPFTFGQGTKVEIKRV[human IgG1 Fc with changes left out] | 0.618 µg/mL | 1.08 AU
13 | TNFα dAb Fc variant G64S (Fc fusion, name in Kabat numbering) DIQMTQSPSSLSASVGDRVTITCRASQAIDSYLHWYQQKPGKAPKLLIYSASNLETGVPSRFSSSGSGTDFTLTISSLLPEDFATYYCQQVVWRPFTFGQGTKVEIKRV[human IgG1 Fc with changes left out] | 2.35 µg/mL | 0.907 AU
14 | TNFα dAb Fc variant G66K (Fc fusion, name in Kabat numbering) DIQMTQSPSSLSASVGDRVTITCRASQAIDSYLHWYQQKPGKAPKLLIYSASNLETGVPSRFSGSKSGTDFTLTISSLLPEDFATYYCQQVVWRPFTFGQGTKVEIKRV[human IgG1 Fc with changes left out] | 542 µg/mL | 0.968 AU
15 | TNFα dAb Fc variant G66Q (Fc fusion, name in Kabat numbering) DIQMTQSPSSLSASVGDRVTITCRASQAIDSYLHWYQQKPGKAPKLLIYSASNLETGVPSRFSGSQSGTDFTLTISSLLPEDFATYYCQQVVWRPFTFGQGTKVEIKRV[human IgG1 Fc with changes left out] | 2170 µg/mL | 0.972 AU
16 | TNFα dAb Fc variant G66Y (Fc fusion, name in Kabat numbering) DIQMTQSPSSLSASVGDRVTITCRASQAIDSYLHWYQQKPGKAPKLLIYSASNLETGVPSRFSGSYSGTDFTLTISSLLPEDFATYYCQQVVWRPFTFGQGTKVEIKRV[human IgG1 Fc with changes left out] | 2.44 µg/mL | 0.909 AU
17 | TNFα dAb Fc variant G68D (Fc fusion, name in Kabat numbering) DIQMTQSPSSLSASVGDRVTITCRASQAIDSYLHWYQQKPGKAPKLLIYSASNLETGVPSRFSGSGSDTDFTLTISSLLPEDFATYYCQQVVWRPFTFGQGTKVEIKRV[human IgG1 Fc with changes left out] | 6.36 µg/mL | 1 AU
18 | TNFα dAb Fc variant G68S (Fc fusion, name in Kabat numbering) DIQMTQSPSSLSASVGDRVTITCRASQAIDSYLHWYQQKPGKAPKLLIYSASNLETGVPSRFSGSGSSTDFTLTISSLLPEDFATYYCQQVVWRPFTFGQGTKVEIKRV[human IgG1 Fc with changes left out] | 2.54 µg/mL | 1.01 AU
19 | TNFα dAb Fc variant K39S (Fc fusion, name in Kabat numbering) DIQMTQSPSSLSASVGDRVTITCRASQAIDSYLHWYQQSPGKAPKLLIYSASNLETGVPSRFSGSGSGTDFTLTISSLLPEDFATYYCQQVVWRPFTFGQGTKVEIKRV[human IgG1 Fc with changes left out] | 1.6 µg/mL | 1 AU
20 | TNFα dAb Fc variant K42A (Fc fusion, name in Kabat numbering) DIQMTQSPSSLSASVGDRVTITCRASQAIDSYLHWYQQKPGAAPKLLIYSASNLETGVPSRFSGSGSGTDFTLTISSLLPEDFATYYCQQVVWRPFTFGQGTKVEIKRV[human IgG1 Fc with changes left out] | 0.723 µg/mL | 0.872 AU
21 | TNFα dAb Fc variant K42H (Fc fusion, name in Kabat numbering) DIQMTQSPSSLSASVGDRVTITCRASQAIDSYLHWYQQKPGHAPKLLIYSASNLETGVPSRFSGSGSGTDFTLTISSLLPEDFATYYCQQVVWRPFTFGQGTKVEIKRV[human IgG1 Fc with changes left out] | 2.26 µg/mL | 1.07 AU
22 | TNFα dAb Fc variant K42L (Fc fusion, name in Kabat numbering) DIQMTQSPSSLSASVGDRVTITCRASQAIDSYLHWYQQKPGLAPKLLIYSASNLETGVPSRFSGSGSGTDFTLTISSLLPEDFATYYCQQVVWRPFTFGQGTKVEIKRV[human IgG1 Fc with changes left out] | 1.23 µg/mL | 0.816 AU
23 | TNFα dAb Fc variant K42Q (Fc fusion, name in Kabat numbering) DIQMTQSPSSLSASVGDRVTITCRASQAIDSYLHWYQQKPGQAPKLLIYSASNLETGVPSRFSGSGSGTDFTLTISSLLPEDFATYYCQQVVWRPFTFGQGTKVEIKRV[human IgG1 Fc with changes left out] | 1.06 µg/mL | 0.903 AU
24 | TNFα dAb Fc variant K42S (Fc fusion, name in Kabat numbering) DIQMTQSPSSLSASVGDRVTITCRASQAIDSYLHWYQQKPGSAPKLLIYSASNLETGVPSRFSGSGSGTDFTLTISSLLPEDFATYYCQQVVWRPFTFGQGTKVEIKRV[human IgG1 Fc with changes left out] | 0.995 µg/mL | 1.09 AU
25 | TNFα dAb Fc variant K42Y (Fc fusion, name in Kabat numbering) DIQMTQSPSSLSASVGDRVTITCRASQAIDSYLHWYQQKPGYAPKLLIYSASNLETGVPSRFSGSGSGTDFTLTISSLLPEDFATYYCQQVVWRPFTFGQGTKVEIKRV[human IgG1 Fc with changes left out] | 3.35 µg/mL | 1.01 AU
26 | TNFα dAb Fc variant K45A (Fc fusion, name in Kabat numbering) DIQMTQSPSSLSASVGDRVTITCRASQAIDSYLHWYQQKPGKAPALLIYSASNLETGVPSRFSGSGSGTDFTLTISSLLPEDFATYYCQQVVWRPFTFGQGTKVEIKRV[human IgG1 Fc with changes left out] | 2.21 µg/mL | 0.865 AU
